{"source": "the RNAGym collection of RNA variant scans (doi:10.1073/pnas.2313332121)", "parents": {"B1": {"name": "TPR 5TU (parent)", "chain": "GGAUCUUCUCGAUCUAACAAAAAAGACAAAUCUGCCACAAAGCUUGAGAGCAUCUUCGGAUGCAGAGGCGGCAGCCUUCGGUGGCGCGAUAGCGCCAACGUUCUCAACUAUGACACGCAAAACGCGUGCUCCGUUGAAUGGAGUUUAUCAUG"}}, "note": "Variants at the floor of the assay are shown more often than the library holds them.", "data": [{"variants_of": "B1", "test": "polymerase ribozyme fitness, log enrichment relative to wild type (log ratio); higher = more active; in vitro selection for triplet polymerase activity", "how_it_was_run": "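Each subunit of a heterodimeric triplet polymerase ribozyme was mutagenized into a library by PCR, transcribed, and subjected to one round of in vitro selection, run in triplicate. Libraries were annealed with a biotinylated primer, the partner subunit and triplets, incubated frozen at −7 °C, and extended constructs were gel-excised, captured on streptavidin beads and recovered by RT-PCR. Input and output libraries were sequenced on Illumina, keeping genotypes with ≥10 input reads and ≥1 read per output. Fitness is log base 2 of genotype enrichment divided by wild-type enrichment, from inverse-variance-weighted replicate averages.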", "values": [{"variant": "GGAUCUUCUCGAUCUAACAAAAAAGACAAAUCUGCCACAAAGAUUGAGAGCAUCUUCGGAUGCAGAGGCGGCAGCCUUCGGUGGCGCGAUAGCGCAAACGGUCUCAACUAUGACACGCAAAACGCGUGCUCCGUUGAAUGGAGUUUAUCUUG", "polymerase ribozyme fitness (log ratio)": -4.16}, {"variant": "GGAUCUUCUCGAUCUAACAAAAAAGACAAAUCUGCCACAAAGAUUGAGAGCAUCUUCGGAUGCAGAGGCGGCAGCUUUCAGUGGCGCGAUAGCUCCAACGAUCUCAACUAUGACACGCACAACGCCUGCUCCGUUGAAUGGAGUUUAUCAAG", "polymerase ribozyme fitness (log ratio)": "≤ -4.2"}, {"variant": "GGAUCUUCUCGAUCUAACAAAAAAGACAAAUCUGCCACAAAGAUUGAGACCAUCUUAGGAUGCAGAGGCGGCAGCCUUCGGUGGCGCGCUAGCGCUAACGUUCUCAACUAUGACACGCAAAAUGCGUGCUCCGUUGAAUGGAGGUUAUCAUG", "polymerase ribozyme fitness (log ratio)": "≤ -4.2"}, {"variant": "GGAUCUUCUCGAUCUAACAAAAAAGACAAAUCUGCCACAAAGAUUGAGAGCAUCUUCGGAUGCAGAGGCGGCAGCCUUCGGUCGCGCGAUAGCGCCAACGUUCUCAACUAUGACACGCAAAACGCGUGCUCCGUUGAAAGGAGUUUAUCAUG", "polymerase ribozyme fitness (log ratio)": "≤ -4.2"}, {"variant": "GGAUCUUCUCGAUCUAACAAAAAAGACAAAUCUGCCACAAAGAUUGAGAGCAUCUUCGGAUGCAGAGGCGGCAGCCUUCGGUGGCGCGAUUGCGGCAACGUUCUCAGCUAUGACACGCAAAACGCGUGCUCCGUUGUAUGGAAUUUAUCAUG", "polymerase ribozyme fitness (log ratio)": "≤ -4.2"}, {"variant": "GGAUCUUCUCGAUCUAACAAAAAAGACAAAUCUGCCACAAAGAUUGAGAGCAUCUUCGGAUGCAGAGGCGGCAGCCUUUGGUGGCGCGAUAGGGCCAACGUUCUCAACUAUGACACGCAAACCGCGUGCUCCGUUGAAUGGAAUUUAUCAUG", "polymerase ribozyme fitness (log ratio)": "≤ -4.2"}, {"variant": "GGAUCUUCUCGAUCUAACAAAAAAGACAAAUCUGCCACAAAGAUUGAGAGCAUCUUCGGAUGCAGAGGCGGCGGCCUUCGGUAGCGCGUCAGCGCCAACGUUCUCAACUAUGACACGCAAAACGCGUGCUCCGUUCAAUGCAGUUUAUCAUG", "polymerase ribozyme fitness (log ratio)": "≤ -4.2"}, {"variant": "GGAUCUUCUCGAUCUAACAAAAAAGACAAAUCUGCCACAAAGAUUGAGAACAUCUUCGGAUGCAGAGGCGGCAGCCUUCGGUGGCGCGAUAGCGCCAACGUUCUCGACUAUGACACGCAAAACGCGUGCUCCGUUGAAUGGAGUUUAUCAUG", "polymerase ribozyme fitness (log ratio)": "≤ -4.2"}, {"variant": "GGAUCUUCUCGAUCUAACAAAAAAGACAAAUCUGCCACAAAGAUUGAGAACAUCUUCGGAUGCAGAGGCGGUAGCCUUCGGUGUCGCGAAAGCGCCAACGUUAUCAACUAUGACACGCAAAACGCGUGCUCCGUUGAAUGUAGUUUAUCAUG", "polymerase ribozyme fitness (log ratio)": "≤ -4.2"}, {"variant": "GGAUCUUCUCGAUCUAACAAAAAAGACAAAUCUGCCACAAAGAUUGAGAGCAUCUUCGGAUACAGAGGCGGCAGCCUUCGGUUGCGCAAUAGCGCCAACGUUGUCAACUAUGACACGCAAAACGCGUGCUCCCUUGAAUGGAGUUUAUCAUG", "polymerase ribozyme fitness (log ratio)": "≤ -4.2"}, {"variant": "GGAUCUUCUCGAUCUAACAAAAAAGACAAAUCUGCCACAAAGAUUGAGAGCAUUUUCGGAUGCAGAGGCGGCAGCCUUCGGUGGGGCGAUAGCGCCUACGUUCUCAACUAUGACACGCAAAACGCGUGCUCCGUUGAAUGUAGUUUAUCAGG", "polymerase ribozyme fitness (log ratio)": "≤ -4.2"}, {"variant": "GGAUCUUCUCGAUCUAACAAAAAAGACAAAUCUGCCACAAAGAUUGAGAGCAUCUUCGGAUGCAGAGGCGGCAGCCUUCGGUGGCGCGAUAGCGCCAACGUUCUCAACUAUGACUCGGAAAACGCGUGCUCCGUUGAAUGGAGUUUAUCAUG", "polymerase ribozyme fitness (log ratio)": "≤ -4.2"}, {"variant": "GGAUCUUCUCGAUCUAACAAAAAAGACAAAUCUGCCACAAAGAUUGAGAGCAUCUUCGGAUGCAGAGGCGGCAGCCUUCGGUGGCGGGAUAGCGCCAACGUUCUCAACUAUGACACGCAAAACGCGUGCUCAGUUGAAUGGAGUUUAUCAUG", "polymerase ribozyme fitness (log ratio)": "≤ -4.2"}, {"variant": "GGAUCUUCUCGAUCUAACAAAAAAGACAAAUCUGCCACAAAGAUUGAGAGCAUCUUCGUAUGCAGAGGCGGCAGCCUUCGGUGGCACGAUAGCGCCAACGUUAUCAACUAUGACACGCAAAACGCGUGCUCCGUUGACUGGAGUUUAUCAUG", "polymerase ribozyme fitness (log ratio)": "≤ -4.2"}, {"variant": "GGAUCUUCUCGAUCUAACAAAAAAGACAAAUCUGCCACAAAGAUUGAGAGCAUGUUCGGAUGCAGAGGCGGCAGCCUUCGGUGGCGCAAUAGCGCCAACGUUCUCAACUAGGACACGCAAAACGCGUGCUCCUUUGCAUGGAGUUUAUCAUG", "polymerase ribozyme fitness (log ratio)": "≤ -4.2"}, {"variant": "GGAUCUUCUCGAUCUAACAAAAAAGACAAAUCUGCCACAAAGAUUGAGAGCAUCUUCCGAUGCAGAGGCGGCAGCCUUCGGUGGCGCGAUAGCGCCAAUGUUCUCAACUAUGACACGCAAAACGCGUGCCUCGUUGAAUGGAGUUUAUCAUG", "polymerase ribozyme fitness (log ratio)": "≤ -4.2"}, {"variant": "GGAUCUUCUCGAUCUAACAAAAAAGACAAAUCUGCCACAAAGAUUGAGAGCAUCUUCGGAUGCAGAGGCGGCAGCCUUCGGUGGCACGAUAGCGCCAACGUUCUCAACUAUGACACGCUCAACGCGUGGUCCGUUGAUUGGAGUUUAUCAUG", "polymerase ribozyme fitness (log ratio)": "≤ -4.2"}, {"variant": "GGAUCUUCUCGAUCUAACAAAAAAGACAAAUCUGCCACAAAGAUUGAGAGCAUCUUCCUAUGCAGAUGCGGCAGCCUUCGGUGGCGCGAUAGCGCCAACGUUCUCAACUAUGACACGCAAAACGCGUGCUCCGUUGAAUGGAGUUUAUCAUG", "polymerase ribozyme fitness (log ratio)": "≤ -4.2"}, {"variant": "GGAUCUUCUCGAUCUAACAAAAAAGACAAAUCUGCCACAAAGAUUGAGAGCAUCUUCGGAUGCAGAGGCGGCAGCGUUCGGUGGCGCGAUAGCGCCAACCUUCUCAACUAUGACACGCAAAACGCGUGCUCCGUUGAAUGGAGUUUAUUGUG", "polymerase ribozyme fitness (log ratio)": "≤ -4.2"}]}]}
